Source: the supplement of paper PMC12217912
This is one part of the list. The full chains were built here from the parent and the listed change. Values near 0.05 are background.

B1: TEV protease; numbered along this chain (parent)
chain: MGESLFKGPRDYNPISSSICHLTNESDGHTTSLYGIGFGPFIITNKHLFRRNNGTLVVQSLHGVFKVKDTTTLQQHLVDGRDMIIIRMPKDFPPFPQKLKFREPQREERICLVTTNFQTKSMSSMVSDTSCTFPSGDGIFWKHWIQTKDGQCGSPLVSTRDGFIVGIHSASNFTNTNNYFTSVPKNFMELLTNQEAQQWVSGWRLNADSVLWGGHKVFMVKPEEPFQPVKEATQL

Variants of: B1
Test: raw area under fraction-flipped curve 0-4 h after induction (AUC4h, not background-subtracted), DNA-recorder readout of cleavage of the substrate (dimensionless); higher = more cleavage of the substrate by the protease variant
Conditions: temperature: 34 °C; time window: 0-4 h after rhamnose induction
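Also: Bxb1 expression induced with 0.2% (w/v) L-rhamnose at OD600 near 0.5, cultures sampled hourly, flipped fraction per protease–substrate barcode pair counted by paired-end Illumina sequencing.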

D82N
area with substrate ENCYFQS: 0.0534
area with substrate ENDYFQS: 0.0694
area with substrate ENEYFQS: 0.0821
area with substrate ENFYFQS: 0.0929
area with substrate ENHYFQS: 0.0728
area with substrate ENIYFQS: 0.0565
area with substrate ENKYFQS: 0.0768
area with substrate ENMYFQS: 0.0586
area with substrate ENNYFQS: 0.05
area with substrate ENPYFQS: 0.0603
area with substrate ENQYFQS: 0.0674
area with substrate ENRYFQS: 0.0643
area with substrate ENSYFQS: 0.0579
area with substrate ENTYFQS: 0.0534
area with substrate ENVYFQS: 0.0687
area with substrate ENWYFQS: 0.0481

D161W
area with substrate ENCYFQS: 0.0406
area with substrate ENDYFQS: 0.0542
area with substrate ENEYFQS: 0.0603
area with substrate ENFYFQS: 0.0573
area with substrate ENGYFQS: 0.049
area with substrate ENHYFQS: 0.0508
area with substrate ENIYFQS: 0.055
area with substrate ENKYFQS: 0.0555
area with substrate ENMYFQS: 0.0439
area with substrate ENNYFQS: 0.0603
area with substrate ENPYFQS: 0.0498
area with substrate ENQYFQS: 0.0436
area with substrate ENSYFQS: 0.0422
area with substrate ENTYFQS: 0.0511
area with substrate ENVYFQS: 0.061
area with substrate ENWYFQS: 0.0517
area with substrate ENYYFQS: 0.0583

H62A
area with substrate ENCYFQS: 0.0673
area with substrate ENDYFQS: 0.076
area with substrate ENEYFQS: 0.075
area with substrate ENFYFQS: 0.0571
area with substrate ENHYFQS: 0.0591
area with substrate ENIYFQS: 0.0951
area with substrate ENKYFQS: 0.0585
area with substrate ENMYFQS: 0.101
area with substrate ENPYFQS: 0.0835
area with substrate ENQYFQS: 0.0604
area with substrate ENRYFQS: 0.0636
area with substrate ENSYFQS: 0.0595
area with substrate ENTYFQS: 0.0664

S127E
area with substrate ENDYFQS: 0.0621
area with substrate ENEYFQS: 0.0647
area with substrate ENFYFQS: 0.0725
area with substrate ENGYFQS: 0.0595
area with substrate ENIYFQS: 0.113
area with substrate ENMYFQS: 0.0831
area with substrate ENNYFQS: 0.0618
area with substrate ENPYFQS: 0.063
area with substrate ENQYFQS: 0.0615
area with substrate ENRYFQS: 0.0643
area with substrate ENSYFQS: 0.0551
area with substrate ENTYFQS: 0.0487
area with substrate ENYYFQS: 0.0477

P134G
area with substrate ENCYFQS: 0.0676
area with substrate ENDYFQS: 0.0612
area with substrate ENFYFQS: 0.0608
area with substrate ENGYFQS: 0.059
area with substrate ENHYFQS: 0.0636
area with substrate ENIYFQS: 0.0769
area with substrate ENMYFQS: 0.0704
area with substrate ENNYFQS: 0.0503
area with substrate ENPYFQS: 0.0663
area with substrate ENSYFQS: 0.0769
area with substrate ENTYFQS: 0.0666
area with substrate ENVYFQS: 0.06

S171M
area with substrate ENCYFQS: 0.0569
area with substrate ENDYFQS: 0.0572
area with substrate ENEYFQS: 0.0686
area with substrate ENFYFQS: 0.0533
area with substrate ENGYFQS: 0.0597
area with substrate ENNYFQS: 0.0615
area with substrate ENQYFQS: 0.0613
area with substrate ENSYFQS: 0.0578
area with substrate ENTYFQS: 0.06

I86V
area with substrate ENCYFQS: 0.0618
area with substrate ENEYFQS: 0.0645
area with substrate ENFYFQS: 0.061
area with substrate ENGYFQS: 0.0623
area with substrate ENHYFQS: 0.0584
area with substrate ENKYFQS: 0.0453
area with substrate ENNYFQS: 0.0524
area with substrate ENQYFQS: 0.0535
area with substrate ENRYFQS: 0.0564
area with substrate ENYYFQS: 0.0596

F180N
area with substrate ENCYFQS: 0.0607
area with substrate ENDYFQS: 0.0512
area with substrate ENEYFQS: 0.0549
area with substrate ENFYFQS: 0.0575
area with substrate ENHYFQS: 0.0559
area with substrate ENIYFQS: 0.0544
area with substrate ENMYFQS: 0.0445
area with substrate ENNYFQS: 0.0441
area with substrate ENQYFQS: 0.0564
area with substrate ENSYFQS: 0.0448
area with substrate ENTYFQS: 0.0737
area with substrate ENVYFQS: 0.029

P89S
area with substrate ENDYFQS: 0.0564
area with substrate ENEYFQS: 0.0649
area with substrate ENGYFQS: 0.0585
area with substrate ENHYFQS: 0.0668
area with substrate ENIYFQS: 0.0788
area with substrate ENKYFQS: 0.0509
area with substrate ENNYFQS: 0.0561
area with substrate ENPYFQS: 0.0549
area with substrate ENQYFQS: 0.0647
area with substrate ENSYFQS: 0.0681
area with substrate ENTYFQS: 0.0661
area with substrate ENVYFQS: 0.0594
area with substrate ENYYFQS: 0.0617

S154W
area with substrate ENCYFQS: 0.0647
area with substrate ENDYFQS: 0.0524
area with substrate ENEYFQS: 0.0697
area with substrate ENFYFQS: 0.0626
area with substrate ENGYFQS: 0.0702
area with substrate ENHYFQS: 0.0614
area with substrate ENIYFQS: 0.0621
area with substrate ENKYFQS: 0.0536
area with substrate ENNYFQS: 0.0602
area with substrate ENPYFQS: 0.0514
area with substrate ENQYFQS: 0.0551
area with substrate ENSYFQS: 0.0598
area with substrate ENTYFQS: 0.043
area with substrate ENWYFQS: 0.0613
area with substrate ENYYFQS: 0.0646

V229C
area with substrate ENAYFQS: 0.0475
area with substrate ENCYFQS: 0.0633
area with substrate ENDYFQS: 0.0943
area with substrate ENEYFQS: 0.0589
area with substrate ENFYFQS: 0.0679
area with substrate ENGYFQS: 0.065
area with substrate ENIYFQS: 0.0982
area with substrate ENKYFQS: 0.0546
area with substrate ENMYFQS: 0.0348
area with substrate ENNYFQS: 0.0619
area with substrate ENPYFQS: 0.0508
area with substrate ENQYFQS: 0.0617
area with substrate ENRYFQS: 0.0537
area with substrate ENSYFQS: 0.0657
area with substrate ENTYFQS: 0.0675
area with substrate ENVYFQS: 0.0774
area with substrate ENYYFQS: 0.0588

V229F
area with substrate ENAYFQS: 0.0647
area with substrate ENCYFQS: 0.0694
area with substrate ENDYFQS: 0.0439
area with substrate ENEYFQS: 0.0602
area with substrate ENFYFQS: 0.0798
area with substrate ENGYFQS: 0.0651
area with substrate ENHYFQS: 0.0612
area with substrate ENIYFQS: 0.108
area with substrate ENMYFQS: 0.0765
area with substrate ENNYFQS: 0.0624
area with substrate ENPYFQS: 0.0513
area with substrate ENQYFQS: 0.0606
area with substrate ENSYFQS: 0.0559
area with substrate ENTYFQS: 0.0595
area with substrate ENVYFQS: 0.105

R106A
area with substrate ENDYFQS: 0.0482
area with substrate ENEYFQS: 0.0757
area with substrate ENFYFQS: 0.0613
area with substrate ENHYFQS: 0.0613
area with substrate ENMYFQS: 0.0895
area with substrate ENNYFQS: 0.0657
area with substrate ENPYFQS: 0.0738
area with substrate ENQYFQS: 0.0526
area with substrate ENSYFQS: 0.0605
area with substrate ENVYFQS: 0.105
area with substrate ENWYFQS: 0.0536
